According to the supplement of paper PMC11876631:
± gives the standard deviation of the averaged measurements. Laboratory Escherichia coli strains with one amino-acid change in an essential protein, pooled on minimal glucose agar with carbenicillin or gentamicin at twice the control MIC (plus kanamycin and chloramphenicol for the plasmids), 48 h. Fold change of barcode share against drug-free plates; higher = less susceptible. Active = above 20 in both replicates (the paper's putatively resistant). '<' = one read or none on drug, '>' = one read or none on a drug-free plate. Shares are relative, so most strains fall below 1 when a few take over. Listed are strains with at least 15 reads on both drug-free plates, and hits; most hits rest on fewer reference reads. Replicate rank correlation about 0.5. Edits are read from barcodes.

B1: purE I32A (protein)
chain: MSSRNNPARVAIVMGSKSDWATMQFAAEIFEALNVPHHVEVVSAHRTPDKLFSFAESAEENGYQVIIAGAGGAAHLPGMIAAKTLVPVLGVPVQSAALSGVDSLYSIVQMPRGIPVGTLAIGKAGAANAALLAAQILATHDKELHQRLNDWRKAQTDEVLENPDPRGAA
B2: purE I32W (protein)
chain: MSSRNNPARVAIVMGSKSDWATMQFAAEIFEWLNVPHHVEVVSAHRTPDKLFSFAESAEENGYQVIIAGAGGAAHLPGMIAAKTLVPVLGVPVQSAALSGVDSLYSIVQMPRGIPVGTLAIGKAGAANAALLAAQILATHDKELHQRLNDWRKAQTDEVLENPDPRGAA
B3: purE I32Q (protein)
chain: MSSRNNPARVAIVMGSKSDWATMQFAAEIFEQLNVPHHVEVVSAHRTPDKLFSFAESAEENGYQVIIAGAGGAAHLPGMIAAKTLVPVLGVPVQSAALSGVDSLYSIVQMPRGIPVGTLAIGKAGAANAALLAAQILATHDKELHQRLNDWRKAQTDEVLENPDPRGAA
B4: purE I32D (protein)
chain: MSSRNNPARVAIVMGSKSDWATMQFAAEIFEDLNVPHHVEVVSAHRTPDKLFSFAESAEENGYQVIIAGAGGAAHLPGMIAAKTLVPVLGVPVQSAALSGVDSLYSIVQMPRGIPVGTLAIGKAGAANAALLAAQILATHDKELHQRLNDWRKAQTDEVLENPDPRGAA
B5: purH V21A (protein)
chain: MQQRRPVRRALLSVSDKAGIAEFAQALSARGVELLSTGGTARLLAEKGLPVTEVSDYTGFPEMMDGRVKTLHPKVHGGILGRRGQDDAIMEEHQIQPIDMVVVNLYPFAQTVAREGCSLEDAVENIDIGGPTMVRSAAKNHKDVAIVVKSSDYDAIIKEMDDNEGSLTLATRFDLAIKAFEHTAAYDSMIANYFGSMVPAYHGESKEAAGRFPRTLNLNFIKKLDMRYGENSHQQAAFYIEENVKEASVATATQVQGKALSYNNIADTDAALECVKEFAEPACVIVKHANPCGVAIGNSILDAYDRAYKTDPTSAFGGIIAFNRELDAETAQAIISRQFVEVIIAPSASEEALKITAAKQNVRVLTCGQWGERVPGLDFKRVNGGLLVQDRDLGMVGAEELRVVTKRQPSEQELRDALFCWKVAKFVKSNAIVYAKNNMTIGIGAGQMSRVYSAKIAGIKAADEGLEVKGSSMASDAFFPFRDGIDAAAAAGVTCVIQPGGSIRDDEVIAAADEHGIAMLFTDMRHFRH
B6: purH V21Q (protein)
chain: MQQRRPVRRALLSVSDKAGIQEFAQALSARGVELLSTGGTARLLAEKGLPVTEVSDYTGFPEMMDGRVKTLHPKVHGGILGRRGQDDAIMEEHQIQPIDMVVVNLYPFAQTVAREGCSLEDAVENIDIGGPTMVRSAAKNHKDVAIVVKSSDYDAIIKEMDDNEGSLTLATRFDLAIKAFEHTAAYDSMIANYFGSMVPAYHGESKEAAGRFPRTLNLNFIKKLDMRYGENSHQQAAFYIEENVKEASVATATQVQGKALSYNNIADTDAALECVKEFAEPACVIVKHANPCGVAIGNSILDAYDRAYKTDPTSAFGGIIAFNRELDAETAQAIISRQFVEVIIAPSASEEALKITAAKQNVRVLTCGQWGERVPGLDFKRVNGGLLVQDRDLGMVGAEELRVVTKRQPSEQELRDALFCWKVAKFVKSNAIVYAKNNMTIGIGAGQMSRVYSAKIAGIKAADEGLEVKGSSMASDAFFPFRDGIDAAAAAGVTCVIQPGGSIRDDEVIAAADEHGIAMLFTDMRHFRH
B7: purH V21W (protein)
chain: MQQRRPVRRALLSVSDKAGIWEFAQALSARGVELLSTGGTARLLAEKGLPVTEVSDYTGFPEMMDGRVKTLHPKVHGGILGRRGQDDAIMEEHQIQPIDMVVVNLYPFAQTVAREGCSLEDAVENIDIGGPTMVRSAAKNHKDVAIVVKSSDYDAIIKEMDDNEGSLTLATRFDLAIKAFEHTAAYDSMIANYFGSMVPAYHGESKEAAGRFPRTLNLNFIKKLDMRYGENSHQQAAFYIEENVKEASVATATQVQGKALSYNNIADTDAALECVKEFAEPACVIVKHANPCGVAIGNSILDAYDRAYKTDPTSAFGGIIAFNRELDAETAQAIISRQFVEVIIAPSASEEALKITAAKQNVRVLTCGQWGERVPGLDFKRVNGGLLVQDRDLGMVGAEELRVVTKRQPSEQELRDALFCWKVAKFVKSNAIVYAKNNMTIGIGAGQMSRVYSAKIAGIKAADEGLEVKGSSMASDAFFPFRDGIDAAAAAGVTCVIQPGGSIRDDEVIAAADEHGIAMLFTDMRHFRH

Biological target: Escherichia coli (laboratory strain)
Test: barcode share on antibiotic plates over drug-free plates; higher = less susceptible
Settings: antibiotic: carbenicillin; 2× MIC (3.1 µg/mL)
Procedure: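 A pool of E. coli strains, each edited to carry one amino-acid change in an essential protein, was grown for 48 h on minimal glucose agar with or without antibiotic; strain barcodes were sequenced; mean of two replicates.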

Row | Protein | fold change of barcode share
1 | B1 | 0.288 ± 0.12
2 | B2 | 0.537 ± 0.58
3 | B3 | 0.399 ± 0.14
4 | B4 | 0.489 ± 0.19
5 | B5 | 0.508 ± 0.09
6 | B6 | 0.528 ± 0.014
7 | B7 | 0.395 ± 0.043

Same assay, conditions: antibiotic: gentamicin; 2× MIC (MIC 0.45 µg/mL)

Row | Protein | fold change of barcode share
8 | B1 | < 0.013
9 | B2 | 0.029 ± 0.035
10 | B3 | < 0.00424
11 | B5 | 0.0131 ± 0.0089
12 | B6 | 0.0137 ± 0.0058
13 | B7 | < 0.0115
